Reference: the CheMixHub viscosity set
Further values from the same series stand in other lists.

Test: xn = mol fraction of the nth substance listed

NCCN + O
viscosity [mPa·s]
Conditions | 303.15 K | 308.15 K | 313.15 K | 318.15 K | 323.15 K
101 kPa, x1 = 0.05 | 1.368 | 1.208 | 1.075 | 0.964 | 0.87
101 kPa, x1 = 0.0999 | 2.291 | 1.971 | 1.717 | 1.515 | 1.334
101 kPa, x1 = 0.103 | 2.417 | 2.078 | 1.809 | 1.586 | 1.402
101 kPa, x1 = 0.15 | 3.635 | 3.059 | 2.602 | 2.243 | 1.95
101 kPa, x1 = 0.1998 | 5.292 | 4.347 | 3.618 | 3.048 | 2.602
101 kPa, x1 = 0.2041 | 5.509 | 4.513 | 3.749 | 3.158 | 2.679
101 kPa, x1 = 0.2483 | 6.622 | 5.378 | 4.43 | 3.714 | 3.14
101 kPa, x1 = 0.2488 | 6.797 | 5.484 | 4.489 | 3.733 | 3.144
101 kPa, x1 = 0.2749 | 7.372 | 5.92 | 4.825 | 3.993 | 3.347
101 kPa, x1 = 0.2962 | 7.573 | 6.089 | 4.934 | 4.081 | 3.408
101 kPa, x1 = 0.2997 | 7.678 | 6.133 | 4.997 | 4.114 | 3.439
101 kPa, x1 = 0.3246 | 7.767 | 6.213 | 5.042 | 4.154 | 3.476
101 kPa, x1 = 0.3488 | 7.67 | 6.133 | 4.987 | 4.117 | 3.44
101 kPa, x1 = 0.3518 | 7.621 | 6.095 | 4.965 | 4.098 | 3.42
101 kPa, x1 = 0.3739 | 7.384 | 5.918 | 4.826 | 3.991 | 3.346
101 kPa, x1 = 0.3944 | 7.02 | 5.643 | 4.621 | 3.84 | 3.234
101 kPa, x1 = 0.4036 | 7.393 | 5.963 | 4.817 | 3.989 | 3.336
101 kPa, x1 = 0.4508 | 6.891 | 5.428 | 4.441 | 3.704 | 3.14
101 kPa, x1 = 0.4542 | 5.965 | 4.871 | 4.032 | 3.385 | 2.875
101 kPa, x1 = 0.5066 | 5.713 | 4.686 | 3.916 | 3.276 | 2.787
101 kPa, x1 = 0.5996 | 4.145 | 3.497 | 2.959 | 2.542 | 2.2
101 kPa, x1 = 0.6989 | 2.91 | 2.491 | 2.172 | 1.902 | 1.68
101 kPa, x1 = 0.7936 | 2.148 | 1.886 | 1.664 | 1.489 | 1.335
101 kPa, x1 = 0.8925 | 1.622 | 1.444 | 1.307 | 1.189 | 1.081
101.33 kPa, x1 = 0.05 | – | – | 1.075 | 0.964 | 0.87
101.33 kPa, x1 = 0.0999 | – | – | 1.717 | 1.515 | 1.334
101.33 kPa, x1 = 0.15 | – | – | 2.602 | 2.243 | 1.95
101.33 kPa, x1 = 0.1998 | – | – | 3.618 | 3.048 | 2.602
101.33 kPa, x1 = 0.2488 | – | – | 4.489 | 3.733 | 3.144
101.33 kPa, x1 = 0.2749 | – | – | 4.825 | 3.993 | 3.347
101.33 kPa, x1 = 0.2997 | – | – | 4.997 | 4.114 | 3.439
101.33 kPa, x1 = 0.3246 | – | – | 5.042 | 4.154 | 3.476
101.33 kPa, x1 = 0.3488 | – | 6.133 | 4.987 | 4.117 | 3.44
101.33 kPa, x1 = 0.3739 | – | 5.918 | 4.826 | 3.991 | 3.346
101.33 kPa, x1 = 0.3944 | – | 5.643 | 4.621 | 3.84 | 3.234
101.33 kPa, x1 = 0.4542 | – | 4.871 | 4.032 | 3.385 | 2.875

NCCN + OCCCCO
318.15 K, 101 kPa
Conditions | viscosity [mPa·s]
x1 = 0.0733 | 31.1
x1 = 0.1427 | 31.2
